The whole screen tested about 310,000 compounds, of which about 14,000 (4.5%) showed an effect of 50% or more. Effects have a minus sign here. This is one part of the list.
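Note: peak tail current of the secondary pulse compared with the same well before compound.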

The target in this assay is human ether-à-go-go-related gene (hERG) potassium channel (human, UniProt Q12809). The experiment in a line: primary screen, population patch clamp on CHO cells stably expressing hERG.
Chain of human ether-à-go-go-related gene (hERG) potassium channel (Q12809 whole entry, looked up): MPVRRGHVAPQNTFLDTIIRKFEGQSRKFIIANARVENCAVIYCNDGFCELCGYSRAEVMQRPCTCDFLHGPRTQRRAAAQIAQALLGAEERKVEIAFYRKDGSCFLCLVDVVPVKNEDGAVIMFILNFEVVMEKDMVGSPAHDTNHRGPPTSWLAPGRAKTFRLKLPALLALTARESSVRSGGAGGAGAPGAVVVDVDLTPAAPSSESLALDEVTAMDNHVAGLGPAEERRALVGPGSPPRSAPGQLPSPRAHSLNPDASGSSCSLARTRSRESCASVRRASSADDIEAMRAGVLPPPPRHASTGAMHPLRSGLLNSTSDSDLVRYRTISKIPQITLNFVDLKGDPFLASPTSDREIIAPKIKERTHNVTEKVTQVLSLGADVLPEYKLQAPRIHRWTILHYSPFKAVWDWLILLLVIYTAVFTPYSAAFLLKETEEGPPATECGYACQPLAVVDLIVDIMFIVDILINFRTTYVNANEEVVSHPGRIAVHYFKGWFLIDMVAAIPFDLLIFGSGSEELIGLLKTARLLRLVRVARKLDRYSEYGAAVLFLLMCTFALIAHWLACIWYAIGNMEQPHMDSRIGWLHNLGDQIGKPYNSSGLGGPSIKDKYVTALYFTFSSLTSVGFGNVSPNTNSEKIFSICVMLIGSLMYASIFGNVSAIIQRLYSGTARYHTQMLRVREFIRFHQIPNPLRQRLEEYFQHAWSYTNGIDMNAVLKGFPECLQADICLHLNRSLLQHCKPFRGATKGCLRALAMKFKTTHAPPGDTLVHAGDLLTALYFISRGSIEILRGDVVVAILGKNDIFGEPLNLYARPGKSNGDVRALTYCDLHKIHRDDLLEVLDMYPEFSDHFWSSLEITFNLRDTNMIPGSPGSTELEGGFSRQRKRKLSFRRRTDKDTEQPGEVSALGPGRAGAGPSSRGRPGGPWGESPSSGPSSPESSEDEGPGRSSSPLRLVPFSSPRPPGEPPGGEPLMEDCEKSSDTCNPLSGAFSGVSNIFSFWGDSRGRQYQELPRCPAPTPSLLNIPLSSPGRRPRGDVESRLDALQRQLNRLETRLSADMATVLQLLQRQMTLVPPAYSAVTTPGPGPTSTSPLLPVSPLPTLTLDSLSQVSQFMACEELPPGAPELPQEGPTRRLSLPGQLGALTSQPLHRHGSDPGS
For `CC1CCN(S(=O)(=O)c2ccc(Cl)cc2)CC1`, the “hERG current change (%, negative = inhibition) at 10uM” value was -4.84%.
With `O=C(Nc1ccccc1F)n1ncc2cc(Cl)ccc21`, the “hERG current change (%, negative = inhibition) at 10uM” value is 17.6%.
Turning to `O=C(Cc1ccc(F)cc1)NC1CCCC1`, the “hERG current change (%, negative = inhibition) at 10uM” value is -8.34%.
On to `Cc1cc(C)cc(NC(=O)c2ccc(N3C(=O)C4CCCCC4C3=O)cc2)c1` (stereo not drawn), for which the “hERG current change (%, negative = inhibition) at 10uM” value amounted to 7.26%.
For `O=C(O)/C=C\C(=O)O.c1ccc(Sc2ccccc2CN2CCCC2)cc1`, the “hERG current change (%, negative = inhibition) at 10uM” value is -50.7%.
In the case of `O=C(NCc1ccco1)c1cc(-c2ccccn2)nc2ccccc12` it was -1.42%.
In the case of `CCOc1cc(C2C3=C(CCCC3=O)N(C)C3=C2C(=O)CCC3)cc(Cl)c1O`, the “hERG current change (%, negative = inhibition) at 10uM” value was found to be 7.13%.
For `COc1c(Br)cc(Br)cc1/C=N/NC(=O)c1ccncc1`, the “hERG current change (%, negative = inhibition) at 10uM” value came to 1.62%.
For the molecule `O=C(C1CCN(S(=O)(=O)c2ccccc2)CC1)N1CCN(Cc2ccc3c(c2)OCO3)CC1`, the “hERG current change (%, negative = inhibition) at 10uM” value is -28.9%.
Consider `Cc1ccc(CCN2C(=O)CCC2(C)C(=O)NCc2cccnc2)cc1` (stereo not drawn), for which the “hERG current change (%, negative = inhibition) at 10uM” value is reported as -14.3%.
Take `COCc1[nH]nc2c1C(c1ccccc1OC)C(C#N)=C(N)O2` (stereo not drawn): the “hERG current change (%, negative = inhibition) at 10uM” value was 6.54%.
With `COc1cc(C(=O)NC2CCCCC2)ccc1OC1CCN(C(C)=O)CC1`, the “hERG current change (%, negative = inhibition) at 10uM” value is on record as 7.63%.
Turning to `C/C(=N\NC(=O)CCc1c[nH]c2ccccc12)c1ccc([N+](=O)[O-])cc1`, the “hERG current change (%, negative = inhibition) at 10uM” value is -6.49%.
Consider `COc1cc(NC(=O)c2ccc3c(c2)OCO3)ccc1NC(=O)c1cccs1`, for which the “hERG current change (%, negative = inhibition) at 10uM” value turned out to be 7.33%.
Turning to `CC(C)C[C@@H]1NC(=O)[C@H](Cc2ccc(O)cc2)NC(=O)[C@H](CCC(N)=O)NC(=O)c2cc([N+](=O)[O-])cc(I)c2NCC[C@@H](C(N)=O)NC1=O`, the “hERG current change (%, negative = inhibition) at 10uM” value worked out at 11.4%.
With `Cc1cc(OC(=O)c2ccc(C(C)(C)C)cc2)c([N+](=O)[O-])c(=O)[nH]1` the figure was 21.8%; with `O=C(NCC(c1cccnc1)N1CCOCC1)c1ccc2c(c1)OCO2` (stereo not drawn), -7.78%.
On to `Cc1cc2ccccn2c1C(=O)Nc1ccc(Cl)cc1`, for which the “hERG current change (%, negative = inhibition) at 10uM” value was found to be 1.3%.
With `C=CCn1c(CSc2nc3ccccc3s2)nnc1SCC(=O)NCCN1CCOCC1` the figure was -20.1%; with `O=C(Nc1ccc(N2CCN(C(=O)c3cccs3)CC2)c(Cl)c1)c1ccco1`, 3.96%; with `COc1cccc(NC(=O)OCCN2CCN(Cc3ccccc3)CCC2=O)c1`, -18.8%.
For the molecule `COc1ccc(NC(=O)/C(C#N)=C/c2ccc(Sc3nncn3C)c([N+](=O)[O-])c2)cc1`, the “hERG current change (%, negative = inhibition) at 10uM” value came out at 8.05%.
Turning to `Cc1ccc(Nc2nc(NCCO)nc(N3CCCC3)n2)cc1`, the “hERG current change (%, negative = inhibition) at 10uM” value is listed as -17.7%.
`O=C(c1ccc(Cl)cc1)c1oc2ccccc2c1CS(=O)c1ccc(Cl)cc1` (stereo not drawn): the “hERG current change (%, negative = inhibition) at 10uM” value is given as -2.42%.
For `Cc1ccc(NC(=O)C2CCCN(S(=O)(=O)c3c(C)noc3/C=C/N(C)C)C2)c(C)c1` (stereo not drawn), the “hERG current change (%, negative = inhibition) at 10uM” value was 3.67%.
With `COc1cc2c(cc1OC)/C(=C/C(=O)c1ccc(C)cc1)NCC2` the figure was -24.5%.
For the molecule `O=C(Cn1cc(S(=O)(=O)N2CCCC2)c(S(=O)(=O)N2CCCC2)c1)NCc1ccco1`, the “hERG current change (%, negative = inhibition) at 10uM” value is given as 17.3%.
Take `CC(C)Cc1ccc(S(=O)(=O)N2CCOCC2)cc1`: the “hERG current change (%, negative = inhibition) at 10uM” value is -42.8%.
In the case of `Cc1ccc(-n2c(=O)c3c(C)c(C)sc3n(Cc3cc(=O)n4ccccc4n3)c2=O)cc1C` it was -4.43%; in that of `O=C(NCc1ccccc1)c1cccnc1N1CCOCC1`, 20.6%.
With `CC1(c2nnc(-c3ccccc3)o2)CC(c2ccncc2)=NO1` (stereo not drawn) the figure was -8.27%; with `COc1ccc(N(CC(=O)N/N=C(\C)CCc2ccccc2)S(=O)(=O)c2ccc(C)cc2)cc1`, -20.3%.
In the case of `Cc1nn(CC(=O)Nc2cccnc2)c(=O)c2ccccc12` it was -3.17%; in that of `O=[N+]([O-])c1ccc(C2CCCC/C2=N/O)c([N+](=O)[O-])c1` (stereo not drawn), 7.62%; in that of `O=C(NCC1CC1)c1cc(-c2ccccc2)nn1CC1CC(c2cccnc2)=NO1` (stereo not drawn), -25%.
As for `Nc1nnc(SCC(=O)Nc2nccs2)s1`, the “hERG current change (%, negative = inhibition) at 10uM” value was 6.72%.
In the case of `CC(C)(C)OC(=O)N1CCC(c2c(C(=O)NCC3CCN(C4CCCC4)C3)cnn2-c2ccccc2Cl)CC1` (stereo not drawn) it was 3.36%; in that of `CC(C)(C)NC(=O)Cn1c(SCC(N)=O)nc2ccccc21`, 3.99%; in that of `Cc1onc(NC(=O)NC(=O)c2ccccc2F)c1Br`, -1.77%.
In the case of `O=C(NCc1cccnc1)C1c2ccccc2C(=O)N1C1CCCCCC1` (stereo not drawn) it was 2.21%.
As for `CC1=C(C#N)C(Nc2cc(C)ccn2)(C(F)(F)F)C(=O)N1` (stereo not drawn), the “hERG current change (%, negative = inhibition) at 10uM” value stood at 0.371%.
As for `N#CCN1CCN(CCC(=O)Nc2ccc(OCc3ccccc3)cc2)CC1`, the “hERG current change (%, negative = inhibition) at 10uM” value is recorded as -26.3%.
As for `COc1c(Cl)cc(Cl)cc1/C=N/n1cnnc1`, the “hERG current change (%, negative = inhibition) at 10uM” value is -9.63%.
For the molecule `O=C(Nc1ccc(Br)cc1)C1CCC(=O)N1Cc1ccccc1Cl` (stereo not drawn), the “hERG current change (%, negative = inhibition) at 10uM” value was 5.71%.
As for `COc1ccc(NS(=O)(=O)c2cc3c(cc2C)NC(=O)CO3)c(OC)c1`, the “hERG current change (%, negative = inhibition) at 10uM” value is -15.3%.
With `COC(=O)Cc1ccc(NC(=O)c2ccc3c(c2)C(=O)N(Cc2cccnc2)C3=O)cc1`, the “hERG current change (%, negative = inhibition) at 10uM” value is 5.83%.
On to `CSCCCN1CCC(n2nccc2NC(=O)CCCc2ccccc2)CC1`, for which the “hERG current change (%, negative = inhibition) at 10uM” value is -62.5%.
In the case of `CCCCSc1cnn(-c2ccccc2)c(=O)c1SCCCC` it was -0.179%; in that of `COc1ccc(C)cc1N(CC(=O)N1CCCCCC1)S(=O)(=O)c1ccc(C)cc1`, -20.9%; in that of `COc1cc(NC(=O)Cn2nc(C(F)(F)F)c(Br)c2C)cc([N+](=O)[O-])c1`, 27.7%.
For `CC1(C)Cc2c(oc3ncn4ncnc4c23)CO1`, the “hERG current change (%, negative = inhibition) at 10uM” value is reported as 16.3%.
Turning to `CCCCN(C(=O)c1ccc(C)o1)c1c(N)n(CCCC)c(=O)[nH]c1=O`, the “hERG current change (%, negative = inhibition) at 10uM” value was -7.4%.
In the case of `O=C1/C(=C\c2ccc(O)cc2)SC(=S)N1Cc1ccccc1` it was 13.1%; in that of `O=C(NCc1ccc2c(c1)OCO2)c1ccccn1`, 3.65%.
Take `CSCCC(NC(=O)c1ccco1)C(=O)N(C)CC(=O)Nc1c(Cl)cccc1Cl` (stereo not drawn): the “hERG current change (%, negative = inhibition) at 10uM” value is listed as 11.8%.
On to `N#Cc1c(NC(=O)c2ccc(Cn3cc(Br)cn3)o2)sc2c1CCCCCC2`, for which the “hERG current change (%, negative = inhibition) at 10uM” value was determined as 1.54%.
Turning to `COc1ccccc1-c1n[nH]c(=S)n1Cc1ccccc1`, the “hERG current change (%, negative = inhibition) at 10uM” value was 13.2%.
Take `Cc1nc(-c2ccccn2)nc(SCC(=O)c2ccccc2)c1Cl`: the “hERG current change (%, negative = inhibition) at 10uM” value was -15.6%.
Take `Cc1ccc(CNC(=O)COC(=O)c2ccc(Br)cc2)cc1`: the “hERG current change (%, negative = inhibition) at 10uM” value is given as 19.3%.
In the case of `Cc1ccc(NC(=O)C2CCCN2c2nn3c(=O)cc(C)nc3s2)cc1` (stereo not drawn) it was -12.2%.
For `CCCCOC(=O)CCNc1n[nH]c(=O)[nH]c1=O`, the “hERG current change (%, negative = inhibition) at 10uM” value is -2.31%.
For `O=C(NCc1ccco1)c1cccc(S(=O)(=O)N2CCN(Cc3ccccc3)CC2)c1`, the “hERG current change (%, negative = inhibition) at 10uM” value is recorded as -20.9%.
Take `CCN(CC)C(=O)Cc1c(OC)ccc2cc(Br)ccc12`: the “hERG current change (%, negative = inhibition) at 10uM” value is on record as -14.3%.
On to `CCN(CC)CCCn1c2c(c(SCC(=O)Nc3cccc(C)c3C)nc1=O)CCC2`, for which the “hERG current change (%, negative = inhibition) at 10uM” value is recorded as -55.3%.
For the molecule `COc1cccc(CC(NC(C)=O)C(=O)NC2CCN(c3nc(C)cc(C)c3C#N)CC2)c1` (stereo not drawn), the “hERG current change (%, negative = inhibition) at 10uM” value is listed as 0.137%.
In the case of `COc1ccc(CN2CCN(Cc3cccn3-c3ncccn3)CC2CCO)c(C)c1C` (stereo not drawn) it was -81.6%.
On to `CCCCN(C)S(=O)(=O)c1ccc(C(=O)Nc2nnc(-c3cccs3)o2)cc1`, for which the “hERG current change (%, negative = inhibition) at 10uM” value is listed as 0.168%.
`CCn1cc(C(=O)O)c(=O)c2cc(F)c(N3CCN(C(=S)Nc4ccc(OC)cc4)CC3)cc21`: the “hERG current change (%, negative = inhibition) at 10uM” value is given as 32.4%.
In the case of `Cc1ccc(N2CC(C(=O)Nc3nnc(SCC(=O)Nc4cc(C)on4)s3)CC2=O)cc1` (stereo not drawn), the “hERG current change (%, negative = inhibition) at 10uM” value came out at 5.51%.
For the molecule `Cc1cccc(NC(=S)NN(Cc2ccccc2)c2ccccc2)c1C`, the “hERG current change (%, negative = inhibition) at 10uM” value was 11.7%.
Regarding `CCOc1ccc(Nc2cc(=O)[nH]c(=O)[nH]2)cc1`, the “hERG current change (%, negative = inhibition) at 10uM” value worked out at 15.4%.
`COc1cc2c(cc1OC)CN(C(=O)c1cc(S(=O)(=O)N3CCOCC3)c(Cl)cc1Cl)CC2`: the “hERG current change (%, negative = inhibition) at 10uM” value is recorded as -13.7%.
For `CCOC(=O)c1c(C)[nH]c(C)c1C(=O)COC(=O)CNC(=O)C1CCCCC1`, the “hERG current change (%, negative = inhibition) at 10uM” value is given as -9.67%.
On to `CC(=O)Nc1ccc(S(=O)(=O)N(C)CC(=O)OCC(=O)N2CCc3ccccc32)cc1`, for which the “hERG current change (%, negative = inhibition) at 10uM” value is listed as -3.16%.
`Cc1cc(C)nc(NS(=O)(=O)c2ccc(NC(=O)Cc3ccc(F)cc3)cc2)n1`: the “hERG current change (%, negative = inhibition) at 10uM” value came to 7.98%.
For the molecule `CC(=O)/C(=N\Nc1ccccc1Cl)Sc1nnc(-c2ccccc2)n1-c1ccccc1`, the “hERG current change (%, negative = inhibition) at 10uM” value came out at 4.12%.
Regarding `C=CCN1C(=O)C2C(C(=O)NC3CCCC3)C3(C)C=CC2(O3)C1C(=O)NC1CCCC1` (stereo not drawn), the “hERG current change (%, negative = inhibition) at 10uM” value worked out at 8.72%.
Consider `O=C(COC(=O)Cc1cccc(C(F)(F)F)c1)Nc1ccc2[nH]c(=O)[nH]c2c1`, for which the “hERG current change (%, negative = inhibition) at 10uM” value is 14.2%.
For `CCOC(=O)Cc1csc(N/N=C\c2cccc(Br)c2)n1`, the “hERG current change (%, negative = inhibition) at 10uM” value is listed as -2.48%.
As to `CC(OC(=O)CN1C(=O)c2ccccc2C1=O)C(=O)N(C)c1ccccc1` (stereo not drawn), the “hERG current change (%, negative = inhibition) at 10uM” value was 15.7%.
`O=C(Cn1c(C(=O)O)cc2ccccc21)c1ccccc1`: the “hERG current change (%, negative = inhibition) at 10uM” value is 18.6%.
Turning to `Cc1cccc(C(=O)N2CCCC(c3nc(-c4ccc(C)o4)no3)C2)c1` (stereo not drawn), the “hERG current change (%, negative = inhibition) at 10uM” value is on record as -27.7%.
As to `O=S(=O)(NNC(=S)Nc1ccc(S(=O)(=O)Nc2ncccn2)cc1)c1ccc(Br)cc1`, the “hERG current change (%, negative = inhibition) at 10uM” value worked out at 26.7%.
Consider `CCc1ccc(N(C(=O)CCC(=O)Nc2cc(C)on2)C(C(=O)NC2CCCC2)c2ccco2)cc1` (stereo not drawn), for which the “hERG current change (%, negative = inhibition) at 10uM” value is reported as -10.3%.

The record behind these values is PMC4336329 (PLoS ONE, 2015).
